Laboratory results: PubChem BioAssay AID1963576 (National Center for Advancing Translational Sciences (NCATS), 2024)
About 60 (0.1%) of roughly 46,000 compounds were called active. Roughly 3% stayed inconclusive and do not appear here. The call rests on the fitted dose curve; in most records, active means well fitted inhibition curve with a large enough effect; inconclusive means small, poorly fitted or top-dose-only effect; inactive means no such curve, though single readings can be large or run the other way. The list shows a part of the results.

Assay: Primary qHTS assay for Inhibitors of ovarian cancer metastasis using an organotypic tumor microenvironment (TME) model. Further: nearly all actives have a fitted effect of over 65% in size.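 On activity change, negative = inhibition: plate controls were DMSO wells for no effect and tomatine positive control wells for full effect.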
Settings: SKOV3ip1-GFP adhesion/invasion on 3D omental model, fluorescence; series mostly up to 45.8 µM; activity change, negative = inhibition: at the top concentration
Summary of the method: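 Adhesion/invasion was scored as fixed GFP-labeled SKOV3ip1 cell counts (488/509 nm), normalized to DMSO and tomatine controls. Cancer cells in serum-free medium, with four compound doses (0.36-46 umol/L), sat 2 hr at RT then 16 hr at 37 C on a 48 hr fibroblast/mesothelial/ECM culture.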

Activity change, negative = inhibition, inactive:
CCOc1ccc(NC(=O)C(=O)NCCc2csc(-c3ccc(C)cc3)n2)cc1 -9.94%
Cc1noc2ncnc(NCc3ccccc3Cl)c12 -5.12%
CCC(=O)N1CCc2cc(S(=O)(=O)NCCC(=O)Nc3ccc(OC)c(OC)c3)ccc21 -9.03%
CCOc1ccc(-c2cc(C(=O)N3CCN(c4ccc(C)cc4)C(C)C3)c3ccccc3n2)cc1 (stereo not given) 4.05%
Cc1cnc2c(c1SCC(=O)NCc1ccc(F)cc1)c(=O)n(C)c(=O)n2C 5.5%
COc1ccc(NC(=O)CSc2nnc3c(C)cc4ccccc4n23)cc1 -0.617%
COc1cc(-c2nnn(CC(=O)NCc3ccccc3)n2)cc(OC)c1OC 4.94%
Cn1cc(S(=O)(=O)c2ccc(Cl)cc2)c(=O)c2cc(F)c(N3CCOCC3)cc21 -5.31%
COc1ccc(-c2cc3nc(C)c(CCC(=O)N4CCN(c5cc(C)ccc5C)CC4)c(C)n3n2)c(OC)c1 9.62%
COc1cc(C(=O)NCCS(=O)(=O)N2CCN(c3ccccc3)CC2)cc(OC)c1OC -5.47%
CC(=O)Nc1ccc(NS(=O)(=O)c2cc3c4c(c2)CC(=O)N4CCC3)cc1 4.84%
CCCCn1nc(NC(=O)c2cccc(Cl)c2)c2cc3ccc(C)cc3nc21 0.0792%
CC(C)(C)c1ccc(OCC(=O)NC(Cc2c[nH]c3ccccc23)C(=O)O)cc1 (stereo not given) 7.78%
COc1cccc(CNC(=O)CCCn2c(=O)c3cccn3c3cccnc32)c1OC 8.05%
CN(C(=O)CSc1nc2ccc(NC(=O)COc3ccccc3Cl)cc2s1)c1ccccc1 2.23%
Cc1ccc(Nc2c(-c3ccccc3O)nc3cc(C)ccn23)cc1 -2%
COc1ccc(N2CCN(S(=O)(=O)CCNC(=O)c3ccc(OC(C)C)cc3)CC2)cc1 -13.8%
COc1ccccc1/C=C/c1nc(C#N)c(N2CCN(c3ccccc3)CC2)o1 4.92%
CCOc1ccc(NC(=O)CN2CCN(CC(=O)Nc3ccc(OC)cc3)CC2)cc1 8.98%
Cc1c(-c2ccc(Cl)cc2)c(=O)oc2c(CN3CCOCC3)c(O)ccc12 17.2%
O=C(NCCc1ccccc1)c1cc2sccc2n1Cc1ccc(F)cc1 -3.08%
COC(=O)c1c(SCC(=O)Nc2cc(F)ccc2F)[nH]c2ccc(C)cc2c1=O 98.4%
COc1ccc(-c2cc(C(F)(F)F)nc(NCCc3ccccc3)n2)cc1 -6.15%
COC(=O)c1cccc(CN2C(=O)SC(Nc3ccc(Br)cc3)C2=O)c1 (stereo not given) 2.31%
Cc1ccc(NC(=O)C2CCCN(S(=O)(=O)c3ccc(F)cc3)C2)cc1 (stereo not given) 5.76%
Cc1cc(C)cc(NC(=O)Nc2cccs2)c1 -12.8%
CCOC(=O)CN1C(C(=O)c2ccccc2)=C(OC(=O)c2ccccc2)c2ccccc2S1(=O)=O -4.39%
COC(=O)C1CCN(C(c2ccccc2Cl)c2sc3nc(-c4ccco4)nn3c2O)CC1 (stereo not given) 2.78%
CCCCOc1ccc(C(=O)Nc2onc3c2CCCC3)cc1 0.792%
CCOC(=O)c1cccc(NC(=O)c2ccc3snnc3c2)c1 -13.5%
COc1ccccc1N1CCN(C(=O)C2CCCN(S(=O)(=O)c3ccc4c(c3)oc(=O)n4C)C2)CC1 (stereo not given) -0.114%
Cc1ccc(C)c(NC(=O)Cn2cnc3nc4c(cc3c2=O)CCCC4)c1 5.42%
Cc1nc2ccn(Cc3cccnc3)c(=O)c2cc1C(=O)N1CCN(c2ccccc2)CC1 -3.63%
COc1ccccc1C(=O)Nc1nc(-c2ccc(Br)cc2)ns1 13.1%
Cc1ccc(Nc2nc(N)nc(N)c2S(=O)(=O)c2ccccc2)cc1 -0.728%
COC(=O)c1sccc1S(=O)(=O)N(CC(=O)NCc1ccccc1)c1ccc(C)cc1 -1.36%
CCc1ccc(-n2c(N3CCN(c4cccc(C)c4C)CC3)nc3ccccc3c2=O)cc1 2.34%
COCCNC(=O)CSc1nnc(NC(=O)Nc2ccc(C)cc2)s1 -2.46%
O=C(Cn1c(=O)n(-c2ccccc2)c(=O)c2c3c(sc21)CCCC3)Nc1ccccc1 -2.15%
O=C(NCc1ccc2c(c1)CCN2C(=O)c1ccc(Cl)cc1)c1ccco1 -4.3%
CC(=O)N1CCc2c(sc3c2c(=O)n(-c2cccc(Cl)c2)c(=O)n3Cc2ccc(F)cc2Cl)C1 -5.75%
Cc1nn(C)c2c1c(C(F)(F)F)cc(=O)n2CC(=O)N1CCN(c2ccccc2F)CC1 21%
CCN(CC)c1ccc(NS(=O)(=O)c2ccc(-c3coc(C)n3)cc2)c(C)c1 13.5%
Cc1ccc(Oc2nc3ccccn3c(=O)c2/C=C(\C#N)c2nc3ccccc3s2)c(C)c1 -0.347%
Cc1cc(C)c2c(=O)c3c(oc2c1)C(=O)N(Cc1ccco1)C3c1ccc(F)cc1 (stereo not given) 2.39%
CCOc1ccc(-c2cc(C(=O)NCCc3ccccc3)c3c(-c4ccc(C)cc4)[nH]nc3n2)cc1 -3.28%
Cc1ccc(CC(=O)Nc2c(C(=O)N3CCN(c4ccccc4)CC3)oc3ccccc23)cc1 -8.9%
Cc1cc(N2CCC(C(=O)Nc3ccc(Cl)cc3)CC2)n2nc(C)c(-c3ccc(Cl)cc3)c2n1 -7.69%
Cc1ccc(Cc2c(C)nc3c(-c4ccccc4)c(C)[nH]n3c2=O)cc1 27%
O=C(CSc1nc(=O)[nH]c2c1CCC2)NCc1ccc(Cl)cc1 -9.45%
CC(C)NC(=O)CSc1nc2ccccc2c(=O)n1Cc1ccc(C(=O)NC(C)C)cc1 -7.53%
O=C(CCS(=O)(=O)c1cccc2nonc12)Nc1cccc(F)c1 -6.48%
CC(CNC(=O)c1ccc2c(c1)nc1n2CCOC1)c1ccccc1 (stereo not given) 0.671%
Cc1cccc(C)c1OCCn1c(C2CC(=O)N(Cc3ccc(F)cc3)C2)nc2ccccc21 (stereo not given) 0.373%
Cc1ccc(Cl)cc1NC(=O)Cn1cc2c(n1)CCCCC2 17.6%
CCSc1ncc(Cl)c(C(=O)Nc2ccc(S(=O)(=O)Nc3nccc(C)n3)cc2)n1 5.02%
COC(=O)c1ccc(C(=O)Nc2ccc(-c3nc4cc(NC(=O)c5ccc(C(=O)OC)cc5)ccc4o3)cc2)cc1 -0.841%
COc1ccc(CN(Cc2ccco2)c2cnc(S(C)(=O)=O)nc2C(=O)Nc2ccc(C)c(C)c2)cc1 -2.99%
Cc1noc2ncnc(N3CCN(c4ccccc4F)CC3)c12 -4.42%
O=C(O)c1cccc(-c2noc(-c3ccccc3F)n2)c1 8.63%
O=C(CCC1N=C2c3ccccc3N=C(SCc3ccccc3Cl)N2C1=O)N1CCN(c2ccccc2)CC1 (stereo not given) -4.04%
Cc1cccc(OCCSc2nc3ccc(NC(=O)COc4ccccc4F)cc3s2)c1 -7.3%
Cc1cc(Cl)ccc1NC(=O)CCn1nc(C)c2c(C)n(-c3ccccc3)nc2c1=O 0.806%
COc1ccc(Cn2ccc3nc(C)c(C(=O)NCc4ccc(C)cc4)cc3c2=O)cc1 -2.13%
CC1(C)CC(=O)c2cc(-c3nc(-c4ccc(Cl)cc4)cs3)c(=O)n(-c3ccc(F)cc3)c2C1 -25.3%
Cc1ccc(C)c(N2CCN(C(=O)CCn3c(=O)[nH]c4ccccc4c3=O)CC2)c1 -0.902%
CCCSCCCNC(=O)c1cc2n(n1)CCCN(Cc1ccc(C)cc1)C2=O 3.16%
CCOc1ccc(CCNC(=O)CCN2N=C(c3ccc(OC)cc3)CCC2=O)cc1OCC -8.47%
CC1COC2(CCN(c3nc(=O)c4cc(C(F)(F)F)cc([N+](=O)[O-])c4s3)CC2)O1 (stereo not given) -4.63%
CC(C)(C)c1ccc(C(=O)NC(Cc2c[nH]c3ccccc23)C(=O)OCC(=O)c2ccc(Cl)cc2)cc1 (stereo not given) -6.37%
O=C(NCCc1csc2nc(-c3cccc(F)c3)nn12)c1ccc(Br)o1 1.79%
Cc1ccc(CNC(=O)CSc2nc3n[nH]c(C)c3c(=N)n2-c2cccc(C)c2)cc1 5.49%
CCOC(=O)c1scc(-c2ccccc2)c1S(=O)(=O)N1CCN(c2ccccc2OC)CC1 -10.4%
COc1ccc(NC(=O)c2oc3ccc(S(=O)(=O)N(C)C4CCCCC4)cc3c2C)cc1 -0.955%

outcome, inactive:
Cc1cccc(N2CCN(c3ncnc4c3c(-c3ccccc3)cn4-c3ccccc3)CC2C)c1 (stereo not given)
CNC(=O)c1c(NC(=O)c2ccc(S(=O)(=O)N3CCCC(C)C3)cc2)sc2c1CCC2 (stereo not given)
Cc1ccc(NC(=O)CSc2nc3ccc(NC(=O)c4ccco4)cc3s2)c(C)c1
CSc1cccc(NC(=O)C(c2ccccc2)N2Cc3ccccc3C2=O)c1 (stereo not given)
Cc1cc(-c2ccc(C)c(S(=O)(=O)N3c4ccccc4CC3C)c2)on1 (stereo not given)
CCOC(=O)c1c(NC(=O)/C=C/c2ccc(OCC)cc2)sc2c1CCCC2
CCN(CC)c1cc(C)c2cc(NC(=O)/C=C/c3ccccc3OC(C)C)ccc2n1
CCOC(=O)c1noc2nc(C)n(CC(=O)Nc3ccc(OC)c(Cl)c3)c(=O)c12
O=C(O)CSc1nnc(-c2ccc(O)cc2)o1
CCOC(=O)CSc1nnc2n(-c3ccccc3)c(=O)c3c4c(sc3n12)COC(C(C)C)C4 (stereo not given)
Cc1cc2c(cc3c(=O)n(CC(=O)NCc4ccccc4Br)ncn32)s1
CCc1c(C)nc2nncn2c1NCc1ccc(OC)cc1
Cc1cccc(CSc2nc3cccnc3n2Cc2ccc(C(=O)NCc3ccco3)cc2)c1
COC(=O)CC1Oc2ccc(C)cc2-n2cc(-c3ccc(F)cc3)nc21 (stereo not given)
COC(=O)c1ccc(NC(=O)c2cccc3c2C(=O)N(C2CCCCC2)C3)cc1
COc1ccc(-c2oc3ncn4nc(-c5ccccc5Cl)nc4c3c2-c2ccc(OC)cc2)cc1
Cc1ccc(C)c(NC(=O)CSc2ncc3c(n2)-c2cc(Cl)ccc2N(Cc2ccccc2F)S3(=O)=O)c1
CCCCNc1nc2c(c(=O)n(Cc3ccc(Cl)c(Cl)c3)c(=O)n2C)n1C
CCOc1ccc(NC(=O)Cn2cc(S(=O)(=O)N3CCN(c4ccccc4F)CC3)c3ccccc3c2=O)cc1
COc1ccc(N(CC(=O)N2CCN(c3ccc(F)cc3)CC2)S(=O)(=O)c2c(C)n[nH]c2C)cc1
COc1ccc(-c2noc(-c3ccc(N4CCC(C)CC4)c([N+](=O)[O-])c3)n2)cc1OC
